The record followed here is ChEMBL document CHEMBL4888484, “Replenishing the malaria drug discovery pipeline: Screening and hit evaluation of the MMV Hit Generation Library 1 (HGL1) against asexual blood stage Plasmodium falciparum ,using a nano luciferase reporter read-out” (2022).

The campaign covered roughly 150,000 compounds. About 540 (0.36%) showed an effect of 50% or more. The list shows a part of the results.

For the assay, the system named is Plasmodium falciparum. Kind of assay: Primary screen in NF54 nanoGlo assay, in single point, at 2uM, 72h; a lower Z score goes with more inhibition. In kind it is functional, Erythrocyte. The settings on record: timepoint 72 hour.
Turning to `Cn1cccc1CN1CCC([C@](C)(O)C(F)(F)F)CC1`, the “% Inhibition” value is -13% and the Z score is listed as 1.61.
For `CCCN(CC(=O)O)C(=O)[C@H]1CCN(C)C(=O)C1` the same measures were -10% and 1.57.
For the molecule `CC(C)(CO)NC(=O)c1ccnc(OCC(F)F)c1`, the “% Inhibition” value was -6% and the Z score is 1.11.
For `Cc1ccc(S(=O)(=O)N[C@H]2CCN(Cc3ccccc3)C2)s1` the same measures were -4% and 0.49.
With `Cc1ccsc1-c1nnc(CC(=O)NC2CCCCCC2)o1`, the “% Inhibition” value is -13% and the Z score is 1.33.
Regarding `CC(C)(C)OC(=O)c1cccc(C(=O)N2CCC3CC3C2)c1` (stereo not drawn), the “% Inhibition” value is listed as -7% and the Z score was 1.22.
Taken in the same sequence, the figures for `O=S(=O)(Nc1ncn(-c2ccccc2)n1)c1cc(F)ccc1F` were 31% and -3.47.
On to `Cc1cc(C)n(CCCNCc2ccc(-c3cc[nH]n3)o2)n1`, for which the “% Inhibition” value is reported as -3% and the Z score came to 0.42.
Take `C=CCOC[C@@H](O)CN(Cc1ccc(F)cc1F)CC(C)C`: the “% Inhibition” value was -3% and the Z score came out at 0.57.
Turning to `CN(Cc1cnccn1)c1cc([C@H]2CCOC2)nc(N)n1`, the “% Inhibition” value is reported as -2% and the Z score came to 0.39.
For the molecule `O=C1CNC(=O)N1Cc1nc(-c2ccncc2)nn1C1CCCCC1`, the “% Inhibition” value is reported as -11% and the Z score amounted to 1.47.
As for `COC(=O)CC(C)(C)CC(=O)N1CCC2C(CCN2C(=O)OC(C)(C)C)C1` (stereo not drawn), the “% Inhibition” value was 13% and the Z score is listed as -1.3.
For `CCOc1ccc(-n2c(C)c3c(C)nn4cc(-c5ccccc5)cc4c3c2C)cc1` the same measures were 6% and -0.72.
For the molecule `CC[C@H](C)c1ccc(NC(=O)COc2ccc(C(=O)c3ccc(F)cc3)cc2)cc1`, the “% Inhibition” value was -1% and the Z score amounted to 0.15.
As to `O=C(N1CCN2CCC[C@H]2C1)C(F)(F)C(F)(F)C(F)(F)C(F)(F)C(F)(F)C(F)(F)F`, the “% Inhibition” value is reported as -16% and the Z score came to 1.42.
Turning to `Cc1ccc2nc(NCC3CC3)n3c(-c4ccccc4F)nnc3c2c1`, the “% Inhibition” value is -14% and the Z score came to 1.62.
In the case of `CN(C)c1nc(CS(=O)(=O)c2ccccc2)cs1`, the “% Inhibition” value is given as -5% and the Z score is reported as 0.94.
For `CCOc1ccc(CNC(=NC)NCCCOC)cc1`, the “% Inhibition” value is 0% and the Z score came out at 0.03.
For the molecule `O=C(c1ccccn1)N1CCC[C@H]1c1nc(C2CCOCC2)no1`, the “% Inhibition” value was -17% and the Z score was determined as 2.14.
As for `COCCS(=O)(=O)NCCN(C)c1ccccn1`, the “% Inhibition” value was 4% and the Z score was -0.56.
For `CCC[C@]1(CO)CCCN(Cc2ccc(OCC(=O)N3CCCC3)cc2)C1`, the “% Inhibition” value is -16% and the Z score worked out at 2.05.
For `Cc1nn(-c2ccccc2Cl)c2c1[C@@H](c1ccc3c(c1)OCO3)CC(=O)N2` the same measures were -8% and 0.87.
`Cc1cc2c(cc1-n1cnnc1)OCO2`: the “% Inhibition” value is -3% and the Z score is 0.47.
For the molecule `Cc1cnn(C2CN(CC(=O)NC(C3CC3)C3CC3)C2)c1`, the “% Inhibition” value is listed as 5% and the Z score was -0.96.
Take `Cc1nnc(CN(C(=O)c2cc(F)c(F)cc2Cl)C(C)(C)C)o1`: the “% Inhibition” value was -13% and the Z score was determined as 1.58.
On to `COc1ccc(C(=O)N2CCC3(CC2)C[C@@H](O)CCO3)cc1`, for which the “% Inhibition” value is on record as 32% and the Z score is -4.6.
Turning to `O=C(Cn1cccn1)Nc1ccccc1-c1ccccc1`, the “% Inhibition” value was -2% and the Z score was 0.29.
As to `O=C(Cn1cccc1-c1nc(-c2cccc(Cl)c2)no1)N1CCOCC1`, the “% Inhibition” value is reported as -8% and the Z score was found to be 1.47.
Take `O=C(NCCc1nccn1Cc1ccccc1)[C@@H]1CCCO1`: the “% Inhibition” value is on record as -14% and the Z score stood at 2.03.
For `C[C@H]1CN(C(=O)c2cccc(-n3nccc3C(F)(F)F)c2)CCN1`, the “% Inhibition” value came out at 3% and the Z score is reported as -0.31.
`CCOc1ccc(-c2nn3c(-c4ccccc4C(=O)O)nc4ccccc4c3nc2=O)cc1`: the “% Inhibition” value is listed as -3% and the Z score is 0.37.
On to `O=C(Nc1ccccc1C(F)(F)F)C1CCN(S(=O)(=O)Cc2cccc(Cl)c2)CC1`, for which the “% Inhibition” value is recorded as -2% and the Z score is 0.42.
Take `CCCCn1c(Nc2nc3ccccc3n2C)nc2ccccc21`: the “% Inhibition” value is -13% and the Z score was found to be 2.04.
Taken in the same sequence, the figures for `CCN=C(NCc1cc(CC)no1)NC[C@H]1COc2ccccc2O1` were -17% and 1.54.
Taken in the same sequence, the figures for `Cc1cc(C(C)C)nc(N2CCN(S(=O)(=O)CC3CCCC3)CC2)n1` were -8% and 0.88.
Turning to `C[C@H]1NC(=O)N(CCc2nc(C(F)(F)F)cs2)C1=O`, the “% Inhibition” value turned out to be 38% and the Z score is listed as -5.47.
On to `O=C(NC[C@@H]1COc2ccccc2C1)c1n[nH]c2c1CCCC2`, for which the “% Inhibition” value is recorded as -16% and the Z score is 2.48.
In the case of `Cc1ccc(C)n1NC(=O)COc1ccc(Br)cc1`, the “% Inhibition” value is -37% and the Z score came out at 4.34.
Taken in the same sequence, the figures for `Cc1cc(C)c(CNCC(C)(C)CCCO)cc1C` were 3% and -0.26.
In the case of `O=C(c1cc2ccccc2[nH]1)N1CC[C@H](n2nccn2)C1`, the “% Inhibition” value is 3% and the Z score is -0.48.
On to `COC[C@@H]1[C@H](NC(=O)c2cc(Cl)ccc2F)[C@H]2CCO[C@H]21`, for which the “% Inhibition” value turned out to be 2% and the Z score is given as -0.18.
Regarding `COc1ccc2c(c1)CCN(c1cc(N3CCC(O)CC3)ncn1)CC2`, the “% Inhibition” value is -6% and the Z score is given as 1.14.
On to `CCN1CCN(c2c(CN(CC(C)C)C(=O)c3cccc(Br)c3)c(C)nn2-c2cccc(F)c2)CC1`, for which the “% Inhibition” value turned out to be 1% and the Z score is -0.17.
In the case of `CCc1csc(CCNC(=O)c2ccon2)n1`, the “% Inhibition” value is -8% and the Z score came to 1.51.
In the case of `N#Cc1cnn2ccn(C[C@H]3CCCS(=O)(=O)C3)c12`, the “% Inhibition” value was -5% and the Z score is recorded as 1.07.
Taken in the same sequence, the figures for `C[C@@H](CC(=O)N1CCCN(CC2CCC2)CC1)N1CCCCC1=O` were 0% and -0.05.
In the case of `Cc1cc(CN2CCN([C@@H](C)c3ncc(C)o3)CC2)on1`, the “% Inhibition” value is -5% and the Z score was determined as 0.77.
On to `N#Cc1ccc(S(=O)(=O)Nc2cccc3nc[nH]c23)cc1`, for which the “% Inhibition” value was -17% and the Z score amounted to 2.26.
Regarding `COc1ccc(OC)c(-c2cnc(-c3ccc(CNC(=O)c4c(Cl)cc(Cl)cc4Cl)cc3)[nH]2)c1`, the “% Inhibition” value stood at 10% and the Z score is -1.33.
For `CCc1cnc(N[C@H]2CCCN(Cc3ccccc3)C2)nc1` the same measures were -11% and 2.09.
As for `Cc1ccc(Oc2nc(N3CCCCC3)nc3c2CN(Cc2cc(C)ccc2F)CC3)cc1`, the “% Inhibition” value is -3% and the Z score was 0.47.
With `CC(C)[C@@H]1N(C(=O)NCCc2cccc(C(F)(F)F)n2)CC12CC=CC2`, the “% Inhibition” value was -10% and the Z score came out at 2.18.
Regarding `CCCN(CC(=O)Nc1ccccc1C)C(=O)COC(=O)c1cncc(OCC(F)F)c1`, the “% Inhibition” value is on record as -12% and the Z score stood at 1.07.
`Cc1cnn(Cc2ccccc2F)c1NC(=O)[C@@H]1CN(C)CCO1`: the “% Inhibition” value came to 1% and the Z score is -0.06.
`Brc1ccc2nc(Nc3ccncc3)nc(-c3ccccc3)c2c1`: the “% Inhibition” value was found to be 4% and the Z score was -0.82.
Take `Cc1cc(C)cc([C@@H](O)CNC(=O)c2cc(F)ccc2N2CCN(C)CC2)c1`: the “% Inhibition” value is listed as -5% and the Z score was determined as 0.79.
For `CC(C)N1CCC(N2CCN(c3cc(C4CC4)ncn3)C[C@@H]2CCO)CC1`, the “% Inhibition” value came to 7% and the Z score is -1.02.
As for `Cc1cccc(-c2cc(N3CCN(C(=O)c4cc(F)ccc4Cl)CC3)ncn2)c1`, the “% Inhibition” value was -4% and the Z score is given as 0.59.
As to `Cn1cc(-c2ccccc2CNC(=O)C(C)(C)CO)cn1`, the “% Inhibition” value is -7% and the Z score came to 1.35.
Take `Cc1nc(Nc2ccc(F)cn2)sc1C(=O)NCc1ccccn1`: the “% Inhibition” value is -9% and the Z score is 1.6.
On to `CC(C)(C)n1cncc1[C@H]1CCCN(C(=O)NCCc2cn[nH]c2)C1`, for which the “% Inhibition” value is reported as -8% and the Z score was found to be 0.98.
Regarding `O=C(Cc1ccccc1)N[C@@H]1CN(c2ccncn2)C[C@H]1CO`, the “% Inhibition” value is 3% and the Z score is -0.43.
With `COc1ccccc1CNC(=O)CN1CCCc2nc(-c3ccncc3)ncc2C1=O`, the “% Inhibition” value was found to be 1% and the Z score was -0.09.
For `CCN1CCN([C@H]2CCN(C(=O)c3cc(C)nc4c3cnn4C)C2)CC1` the same measures were 9% and -0.86.
As for `CC(C)n1nccc1N(CC(=O)N(C)C1CCCCC1)S(=O)(=O)c1ccccc1`, the “% Inhibition” value is -18% and the Z score is on record as 2.86.
Taken in the same sequence, the figures for `Cn1cc(Cl)cc1C(=O)N1CC[C@@]2(CCCN(C3CCCCC3)C2=O)C1` were -5% and 0.75.
For the molecule `CCc1noc(C)c1CNC(=O)N1CC2(CCC2)[C@@H]1C1CCOCC1`, the “% Inhibition” value is listed as 2% and the Z score is given as -0.33.
Take `O=C1CN(C(=O)[C@H]2CCC(=O)N(C3CCCC3)C2)CCN1Cc1cccc(F)c1`: the “% Inhibition” value is given as -12% and the Z score is reported as 1.55.
Taken in the same sequence, the figures for `O=C(C1CCC(O)CC1)N1CCCCC[C@H]1C=Cc1ccccc1` (stereo partly drawn) were -4% and 0.69.
On to `CC(C)Cn1ncc(Nc2ncnc3[nH]ccc23)c1C1CC1`, for which the “% Inhibition” value is given as 25% and the Z score was -3.19.
For `CCn1c(CO)nnc1[C@H]1C[C@H](NC(=O)c2ccc3cc[nH]c3c2)C1`, the “% Inhibition” value was -21% and the Z score stood at 3.99.
Taken in the same sequence, the figures for `CN([C@H]1CCS(=O)(=O)C1)S(=O)(=O)c1cccc2c1N=S=N2` were -10% and 1.19.
On to `CN(C(=O)N[C@H]1CC(=O)N(c2ccccc2)C1)C1CCCCC1`, for which the “% Inhibition” value is on record as 22% and the Z score was -2.77.
For `CCCN1CCN(S(=O)(=O)c2cccc(OC)c2)[C@H]2CS(=O)(=O)C[C@H]21` the same measures were -1% and 0.1.
Take `CC1CCN(C(=O)CON=C(N)c2ccccc2CN2CCCCC2)CC1`: the “% Inhibition” value is reported as -13% and the Z score amounted to 1.46.
Taken in the same sequence, the figures for `O=C(NCCC1=CCCCC1)c1ccc2cc(-c3ccccc3)[nH]c2c1` were -5% and 0.88.
Regarding `CC1CCN(C(=O)NCC2CCC(F)(F)CC2)CC1n1ccnc1` (stereo not drawn), the “% Inhibition” value came to 39% and the Z score is listed as -5.63.
As to `Cc1ccc(C)c(CN2CCN(Cc3ccccn3)[C@H]3CS(=O)(=O)C[C@H]32)c1`, the “% Inhibition” value is 1% and the Z score is recorded as -0.13.
As for `CC[C@H]1CCCCN1C(=O)NCC1CCC2(CC1)OCCO2`, the “% Inhibition” value was -16% and the Z score came out at 2.02.
Taken in the same sequence, the figures for `N#Cc1ccc([C@H]2CC(=O)Nc3c2cnn3Cc2cccs2)cc1` were -6% and 1.15.
Taken in the same sequence, the figures for `CCOC[C@@H](O)CNC(=O)C1CCN(C(=O)CC)CC1` were -1% and 0.15.
As for `NC(=O)c1ccc(CN2CCN(S(=O)(=O)c3ccc4c(c3)CCCC4)CC2)cc1`, the “% Inhibition” value is recorded as 2% and the Z score is on record as -0.23.
With `CN1C(=O)CC[C@@]12CCN(C(=O)Nc1ccccc1C(F)(F)F)C2`, the “% Inhibition” value was -4% and the Z score is reported as 0.53.
`CC(C)(C)NC(=O)Cn1cnc(C#N)n1`: the “% Inhibition” value stood at 0% and the Z score is on record as -0.02.

Broadly, the % Inhibition is the drop in the measured response relative to a control, in per cent.
